According to the supplement of paper PMC10126150:
Sequences with one replicate were seen in a single cluster, so their values are uncertain.

System: ATP
Assay: switch fluorescence ratio, 500 uM ATP over buffer (Cy3 cluster intensity, sum of 5 cycles each) (fold (ratio)); higher = stronger signal-on switching upon ATP binding; sequences stand for … in TCGTCGGCAGCGTCAGATGTGTATAAGAGACAGTTTTTTTTTTTTTTTTTTTTTTTTT…TC
Details: aptamer strand: ATP DNA aptamer (quencher-CACCTGGGGGAGTATTGCGGAGGAAGG + anchor), 100 nM annealed; ATP concentration: 500 uM; one replicate
Procedure, shortened: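 After annealing to 100 nM quencher-labelled ATP aptamer, Cy3-labelled switching-strand clusters on a modified Illumina MiSeq flow-cell were imaged in selection buffer. A second image followed after 15 min with 500 uM ATP at 22 °C, and five such buffer/ATP cycles were done, each separated by NaOH stripping and re-annealing. The fluorescence ratio, averaged per switch-domain sequence, is summed target-cycle over summed buffer-cycle Cy3 intensity per cluster, with clusters outside 100-1000 RFU excluded.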
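Note: ATP exposure 15 min at 22 °C before imaging.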

| Sequence | switch fluorescence ratio |
| --- | --- |
| AATACTCCTG | 1.44 |
| AATAGAAATG | 1.22 |
| AATAGAACTC | 1.02 |
| AATAGACGTA | 1.03 |
| AATAGAGTGT | 0.972 |
| AATAGCACAC | 1.38 |
| AATAGCAGCG | 1.04 |
| AATAGCGTAT | 0.997 |
| AATAGGATCA | 0.984 |
| AATAGGGCAA | 1.04 |
| AATAGGTTCC | 1.05 |
| AATAGTACTA | 1 |
| AATAGTAGAG | 0.98 |
| AATAGTATCA | 0.986 |
| AATAGTCGGT | 0.988 |
| AATAGTGGGG | 0.958 |
| AATAGTTCAA | 0.979 |
| AATAGTTGGT | 0.946 |
| AATATAGTGT | 1.02 |
| AATATCTCTA | 1.01 |
| AATATGACAG | 1.01 |
| AATATGACGA | 0.989 |
| AATATGTGT | 0.982 |
| AATATTTGTA | 1 |
| AATCAAAGC | 1.03 |
| AATCAATGCG | 1.02 |

| Sequence | switch fluorescence ratio |
| --- | --- |
| AATCAGATAA | 1.04 |
| AATCAGCGCT | 1.01 |
| AATCAGGGGC | 1.05 |
| AATCATAAA | 0.982 |
| AATCATCCGG | 1.06 |
| AATCATCTGG | 1.09 |
| AATCCAATTG | 0.993 |
| AATCCACGGA | 1.1 |
| AATCCAGGCT | 0.98 |
| AATCCATGTG | 0.988 |
| AATCCCGCTA | 1.86 |
| AATCCCTGAG | 1.12 |
| AATCCGACG | 1.14 |
| AATCCTCCA | 1 |
| AATCCTTGGA | 0.955 |
| AATCGCGGTT | 1.02 |
| AATCGGTCCC | 1.02 |
| AATCTACGAT | 1.04 |
| AATCTATCCG | 0.948 |
| AATCTCGCCG | 1.03 |
| AATCTCGGCT | 0.989 |
| AATCTGGTCG | 0.956 |
| AATCTGTCG | 1.04 |
| AATCTGTTAC | 1.03 |
| AATCTTAC | 1.25 |
| AATCTTCCAT | 1.03 |

| Sequence | switch fluorescence ratio |
| --- | --- |
| AATCTTCCGG | 1.46 |
| AATCTTGTA | 0.962 |
| AATCTTTGG | 1.03 |
| AATGACAGGA | 1.01 |
| AATGAGGATA | 1.01 |
| AATGATCGG | 1.02 |
| AATGATGAGT | 0.991 |
| AATGATTATG | 1.01 |
| AATGATTTCG | 0.964 |
| AATGCAACTC | 1.1 |
| AATGCATGC | 1.03 |
| AATGCCATTC | 1.01 |
| AATGCCGTGT | 0.98 |
| AATGCCTGAA | 1.01 |
| AATGCCTTG | 0.992 |
| AATGCGGGGC | 1.04 |
| AATGCTAGGT | 0.993 |
| AATGGACAGC | 1.04 |
| AATGGAGTCG | 0.998 |
| AATGGAT | 1.03 |
| AATGGCCGG | 1.01 |
| AATGGCGTGC | 0.994 |
| AATGGCTAGT | 1.04 |
| AATGGGCAAT | 1.06 |
| AATGGGCCTG | 0.967 |
| AATGGGCGTA | 1.03 |

| Sequence | switch fluorescence ratio |
| --- | --- |
| AATGGGTG | 1.08 |
| AATGGTGTA | 1.02 |
| AATGTAGGTC | 1 |
| AATGTGAGG | 1 |
| AATGTGAGTA | 0.97 |
| AATGTGCTTA | 1 |
| AATGTGGAGC | 0.993 |
| AATGTGGCGT | 0.967 |
| AATGTTGCTT | 1.01 |
| AATGTTTTAG | 0.999 |
| AATTAAAGGA | 0.998 |
| AATTAATTTC | 1.02 |
| AATTACAGGT | 1.03 |
| AATTAGAGTG | 1 |
| AATTAGCTTG | 0.978 |
| AATTAGGTTA | 1.06 |
| AATTATAACT | 1.08 |
| AATTATACAG | 1.03 |
| AATTATACGA | 1.06 |
| AATTATCAAC | 1.01 |
| AATTATCACC | 1 |
| AATTATCTA | 0.974 |
| AATTATGGCG | 0.982 |
| AATTATTGAC | 1.05 |
| AATTCAAACA | 1.03 |
| AATTCAGAA | 0.966 |

| Sequence | switch fluorescence ratio |
| --- | --- |
| AATTCAGAAC | 0.963 |
| AATTCAGAAT | 1.02 |
| AATTCCCCCG | 1.4 |
| AATTCTCGCT | 0.985 |
| AATTCTCTCT | 1.02 |
| AATTCTGAGC | 1.01 |
| AATTGACCAG | 1.03 |
| AATTGCACCG | 1.06 |
| AATTGCACTG | 0.956 |
| AATTGCAGTG | 1.04 |
| AATTGCGGTG | 0.966 |
| AATTGCTTTG | 0.984 |
| AATTGTCTGG | 1.01 |
| AATTGTGTAA | 0.979 |
| AATTTAATGT | 1.02 |
| AATTTCAGCA | 0.981 |
| AATTTCCACA | 1.02 |
| AATTTCGAGC | 0.999 |
| AATTTCTTTA | 1.04 |
| AATTTGAGAG | 0.978 |
| AATTTGATG | 1.01 |
| AATTTGCTGT | 1 |
| AATTTTACCT | 1.26 |
| AATTTTCATT | 0.973 |
| AATTTTGCAT | 1.02 |
| AATTTTTGCG | 0.953 |

| Sequence | switch fluorescence ratio |
| --- | --- |
| ACAAAAACTA | 1.06 |
| ACAAACGGAA | 1.39 |
| ACAAACGTCG | 1.26 |
| ACAAACTATT | 1.03 |
| ACAAAGAGGG | 0.983 |
| ACAAAGGGAT | 1.01 |
| ACAAATGACC | 1.04 |
| ACAACAGTCT | 1.08 |
| ACAACATGTG | 1.03 |
| ACAACCGGAC | 1.95 |
| ACAACCTAA | 1.05 |
| ACAACCTAGG | 0.984 |
| ACAACGCCCA | 1.56 |
| ACAACTGCAT | 1.09 |
| ACAAGCTGAA | 1.03 |
| ACAAGGGGAC | 1.02 |
| ACAAGGGTGG | 0.998 |
| ACAAGTATGG | 0.97 |
| ACAAGTGAAC | 1.05 |
| ACAAGTTTAC | 0.967 |
| ACAATACGAT | 1.54 |
| ACAATACGGC | 1.48 |
| ACAATAGCAT | 1.05 |
| ACAATATGTT | 1.09 |
| ACAATCGACA | 1.06 |
| ACAATCTTG | 0.916 |

| Sequence | switch fluorescence ratio |
| --- | --- |
| ACAATGAAAT | 0.976 |
| ACAATGGCTT | 1 |
| ACAATGGGGG | 0.997 |
| ACAATTCGGC | 0.928 |
| ACAATTCTAT | 0.948 |
| ACAATTGCCA | 0.972 |
| ACACAAATG | 1.01 |
| ACACACAAGG | 1.48 |
| ACACACAGAA | 1.26 |
| ACACAGTAAA | 1.05 |
| ACACAGTTTG | 1.04 |
| ACACCAAGGG | 1 |
| ACACCGCTAA | 4.78 |
| ACACCGGAAA | 1.04 |
| ACACCTGAGC | 1.11 |
| ACACCTTCGC | 2.06 |
| ACACGAGTTC | 1.02 |
| ACACGATTTG | 1.02 |
| ACACGGCCGA | 1.07 |
| ACACGTCGCC | 1.06 |
| ACACTAAGTC | 1.07 |
| ACACTAGGAA | 1.07 |
| ACACTGAAGG | 1.01 |
| ACACTTCCCT | 1.07 |
| ACACTTGACT | 1.12 |
| ACAGAAACGG | 1.05 |

| Sequence | switch fluorescence ratio |
| --- | --- |
| ACAGACGATA | 1.25 |
| ACAGACGCTG | 1.04 |
| ACAGAGGAAG | 0.99 |
| ACAGAGGCTT | 1.03 |
| ACAGAGGTGC | 1.05 |
| ACAGAGTGGA | 1.02 |
| ACAGAGTTAC | 1.03 |
| ACAGATATTG | 1.02 |
| ACAGATGGCA | 1.08 |
| ACAGATTACT | 1.14 |
| ACAGCAAAGG | 1.12 |
| ACAGCCGCCC | 1.2 |
| ACAGCCGTCG | 1.04 |
| ACAGCGCTGT | 1.02 |
| ACAGCGGTCC | 1.05 |
| ACAGCTAGG | 1.03 |
| ACAGGACCAC | 1.13 |
| ACAGGATCGC | 0.978 |
| ACAGGGAGGA | 1.01 |
